Data reported in the supplement of paper PMC11417369.
± gives the standard deviation of the averaged measurements. Some of the results follow.

test system: PfAP2-G AP2 domain (GST-tagged); test: gcPBM binding intensity (ln(normalized median fluorescence intensity)); higher = stronger DNA binding
In short: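 The highest Masliner-normalised natural-log median intensity across replicate spots of either probe orientation is reported as binding intensity. GST-tagged P. falciparum DNA-binding domains expressed in E. coli were applied for 1 h to an Agilent 4 × 180k array of primer-extended double-stranded 36-bp intergenic genomic probes plus negative controls, and bound protein was detected with Alexa488 anti-GST antibody and scanned at 488 nm.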

| Sequence | gcPBM binding intensity (ln) |
| --- | --- |
| AAAAATACCTTATATATACACACTATGTTTTTCTTT [CACACA_site1192] | 9.96 ± 0.15 |
| AAATATTAGTAACACAGACACACAAAAAAAAAAAAA [CACACA_site2175] | 9.96 ± 0.35 |
| AAAAAAAAAAAAAAAAGTACACAAATTTTAAAAATT [XGTACX_site3006] | 11.6 ± 0.88 |
| TTGTATTATATTGTATTATGTTTAAATGAAAAAAAA [CACACA_negctrl_site662] | 10 ± 0.4 |
| TATTGTTACTTTATATGTACTAATTAAACATATACA [XGTACX_site6363] | 11.1 ± 0.89 |
| AATTACTACATAAATACATGCATAATTATATATATA [TGCATGCA_site783] | 9.74 ± 0.19 |
| TATCTCTTCATATTGTGTACATATTTTTATTTATTG [XGTACX_site4038] | 11.4 ± 0.72 |
| ATAAAATATAAAAATTGTACGATAATAATAGTAGGA [XGTACX_site8951] | 10.8 ± 0.36 |
| AACACTTCTTATTTATGTACTTAATTCCCAACGGAA [XGTACX_site4818] | 11.3 ± 0.63 |
| AAATATATATATATATATATATATATATATATATAT [CACACA_negctrl_site677] | 10 ± 1 |
| AAATGAATAAATAAGACACACACGAAAATAAGTAAA [CACACA_site71] | 10.2 ± 0.11 |
| TGATCAGATAGACACACACACAAAAAAAAAAAAAAA [CACACA_site7805] | 10.1 ± 0.48 |
| TTATAAAATTACTTGGTGCATTAGAATATTTCAATA | 10.1 ± 0.3 |
| ACTTATATATTATGTTGTCCGTCCATTCTCTTTATC [XGTACX_site3769] | 11.2 ± 0.61 |
| TACATGTATAAATAAGCACACATGTGGATATGTACA [CACACA_site93] | 10.7 ± 0.27 |
| CAAAATATTTTTATAACACACATATATATAATGTGC [CACACA_site4767] | 9.9 |
| TTTTCATTCAATTATATTTATATATATATATATATA [GTGCAC_negctrl_site538] | 9.91 ± 0.39 |
| TAAAAAATTTTATATTCACACACATATATATATATA [CACACA_site8109] | 10.1 ± 0.29 |
| TAAAAGTATATATATACACACATAAATATATATGTA [CACACA_site663] | 9.86 ± 0.14 |

| Sequence | gcPBM binding intensity (ln) |
| --- | --- |
| TACACAAGGGGAAAAATATATATATATATATATATA [TGCATGCA_negctrl_site217] | 9.86 ± 0.46 |
| TTTTTTTTGGAATTCACACAAATATAACATGGGTAT [CACACA_site5185] | 10.2 ± 0.3 |
| TTCTTTTCTTTAGTAGAATGTAAAAAATATAATCTT [XGTACX_negctrl_site290] | 9.84 ± 0.17 |
| AAAATTTAAAGCATGACACACAATTATATTATGTGC [CACACA_site3435] | 9.72 ± 0.085 |
| TTGTGAAATAAAATTTGTACACACATATATATATAT [XGTACX_site1078] | 11.2 ± 0.86 |
| TTTTTTTTTTTTTTTGCACACACCATATTTATAGAA [CACACA_site3310] | 10 ± 0.55 |
| AGAAAAGTGATATATACACACTTATATTTATTTATA [CACACA_site7350] | 9.875 ± 0.007 |
| AAAAAAAAAAAAAAAACACACATACATACATACATA [CACACA_site6125] | 10.3 ± 0.22 |
| TTTTATAAGGTGAAAAGTACATATAACTTATTTTAC [XGTACX_site5572] | 11.2 ± 0.75 |
| TATTGTCTATAATAAACACACAATATTAAAAATATA [CACACA_site6624] | 9.93 ± 0.28 |
| ATCTTTCCTATTTGTAGTACAAAAAAAAAAAAAAAA [XGTACX_site5485] | 11.4 ± 1 |
| TTAAATGATGTAAACACACACATATACATTATTATA [CACACA_site3162] | 9.895 ± 0.049 |
| ATATATATATATATATGTACTTATAATAATATTCAA [XGTACX_site2593] | 11.3 ± 0.81 |
| ACGTGTGATTATAATTGTACTTTAATGTAAGAATGA [XGTACX_site1109] | 11.2 ± 0.76 |
| TTATTTTATTTTTTTGTGCACATATATATTTATAAA [GTGCAC_site9615] | 10.7 ± 0.42 |
| AATTTTATTTAATTTTTTTGGGAAATGATAAAATTT [CACACA_negctrl_site934] | 9.88 ± 0.2 |
| AAAATTAATTATTACAAAAATGAAAAGACATATTTT [GTGCAC_negctrl_site735] | 9.73 ± 0.17 |
| TCACATTTTGGACACGTGCACATATATTTGATACAT | 10.9 ± 0.4 |
| ATTGTAAGTAAACACACACACATATATCTGTATTTA [CACACA_site4542] | 9.98 ± 0.12 |

| Sequence | gcPBM binding intensity (ln) |
| --- | --- |
| TACCATGTTCAAATTACACACATATAATGCAATATA [CACACA_site7034] | 10.1 ± 0.25 |
| CTGAAATTAACAAAAGTGCATAAAAATAAAAAATAT [GTGCAC_site9652] | 10.2 ± 0.19 |
| ATTTATATATAAATGTGTACATATATATATATAAAC [XGTACX_site7592] | 11.5 ± 0.81 |
| CAATGCAAGGCTTAAAAAAATGGGCATATTATATAT [GTGCAC_negctrl_site304] | 10.2 ± 0.16 |
| AATATTATATTAAAATGTACAAAAATGAATTACTTT [XGTACX_site1473] | 10.8 ± 0.3 |
| TTTTTTTACAACATTACACACAAATATTCTGGGTTA [CACACA_site3755] | 9.96 ± 0.042 |
| AATAATTGTTAAAGGTGTACAATACCTACATAAGAA [XGTACX_site4215] | 11.5 ± 0.95 |
| AAATGGCAATAATGGACACACAAATGTTGTTATATA [CACACA_site2819] | 10.7 ± 0.46 |
| GGAATTGAAAAATCAGCACACACACTAATACATACA [CACACA_site9059] | 10.3 ± 0.25 |
| ATTTACCAGACCATATGTACATACATAAAACACACA [XGTACX_site3788] | 11.3 ± 0.76 |
| AAAAAGGAAATTTACACACACATATAATATACATTA [CACACA_site3296] | 9.92 ± 0.014 |
| GTTCTACAAGCCACTGCATGCTGATATAGAATAAAT [TGCATGCA_site138] | 9.95 ± 0.13 |
| ATATGATTATTATTATATAAATTATAAAGTCTAATA [GTGCAC_negctrl_site586] | 9.565 ± 0.078 |
| TTCTTTGCTTTTCAAACACACAAAAGTTATTATAGT [CACACA_site6390] | 10.01 ± 0.078 |
| TCATATATCCTTATCACACATATAATAAATTCCCTT [CACACA_site4457] | 9.84 ± 0.14 |
| AATATTTCTCATTTTGTGCACTGAAAAATGTAATAT | 10.3 ± 0.32 |
| CTTTTTAATTAATACACACACACACGGATATAAATA [CACACA_site7145] | 10.4 ± 0.24 |
| TATTTTTTTTGTGTGTGTCCTCATGTAATACTGCAA [XGTACX_site1380] | 11.1 ± 0.71 |
| ATATATATATATATATGTACTTAAAAAATATATACA [XGTACX_site8952] | 11.2 ± 0.8 |
